Consider 86 sequences from the supplement of paper PMC3334620.

The full ranking holds about 33,000 sequences; the median of “E-score (-0.5 to 0.5)” is about -0.016, and the highest 2% start at about 0.31. The list shows a part of the results.

The target of the assay is Cst6 (UniProt P40535). The assay is described as follows: PBM E-score (8-mer binding enrichment) (E-score (-0.5 to 0.5)); higher = stronger / more preferred TF binding; most listed sequences are background and not binding sites. Particulars: protein concentration: 200 nM; construct: GST-DNA-binding domain. Put shortly:
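PURExpress in vitro transcription/translation supplied GST-tagged yeast transcription factors, either full-length or DNA-binding domain. Applied at about 100-200 nM to universal all-10-mer Agilent arrays double-stranded by primer extension, the bound protein was detected with fluorescent anti-GST. E-scores, modified Wilcoxon-Mann-Whitney statistics, were given by the Universal PBM Analysis Suite to ungapped eight-base words pooled with their reverse complements after masliner normalisation.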
For the sequence GACACTTA, the “PBM E-score” value is 0.072.

With GCTGCAGA, the “PBM E-score” value is -0.104.

In the case of ATGTCAAA, the “PBM E-score” value is 0.237.

For the sequence AAACACTT, the “PBM E-score” value stood at 0.0247.

Regarding GCCCCGGA, the “PBM E-score” value is -0.247.

For the sequence GCAACCCA, the “PBM E-score” value was -0.0438.

On to ACACGCAA, for which the “PBM E-score” value stood at 0.131.

For the sequence GGCGCACC, the “PBM E-score” value was -0.162.

As to CCAAACCA, the “PBM E-score” value was -0.12.

In the case of AGACGTAT, the “PBM E-score” value worked out at 0.144.

AGTGATCA: the “PBM E-score” value turned out to be 0.0655.

For the sequence GTTATTAA, the “PBM E-score” value was 0.149.

As for AACTGCAG, the “PBM E-score” value is -0.112.

In the case of ATAAAGGC, the “PBM E-score” value is 0.00148.

For ACCCGTAC, the “PBM E-score” value was -0.0234.

As for AGAACTCA, the “PBM E-score” value was -0.0679.

Take CGGGTCTA: the “PBM E-score” value is -0.0428.

For the sequence AGTAGTGG, the “PBM E-score” value was 0.0114.

Take ACTGACCC: the “PBM E-score” value is -0.208.

On to AGGCGGGC, for which the “PBM E-score” value is -0.176.

ACATGTCA: the “PBM E-score” value is 0.275.

For the sequence AATTAGAA, the “PBM E-score” value amounted to 0.115.

With CTAGTCCA, the “PBM E-score” value was -0.164.

Consider CCCGACCG, for which the “PBM E-score” value is -0.311.

For GAATCGGA, the “PBM E-score” value stood at 0.0567.

In the case of GGCAACGA, the “PBM E-score” value is 0.0637.

Regarding ACGATACG, the “PBM E-score” value is -0.00234.

For CGGTCTCC, the “PBM E-score” value was -0.371.

In the case of CGAAGGGA, the “PBM E-score” value is -0.122.

Take CAAAGTGA: the “PBM E-score” value amounted to 0.0189.

Take CAACCCCA: the “PBM E-score” value was 0.045.

CAGACACC: the “PBM E-score” value is -0.149.

AGTTTGAT: the “PBM E-score” value came to 0.0532.

ATGTTCCC: the “PBM E-score” value is -0.203.

AACTGCAA: the “PBM E-score” value was -0.0232.

CTACGAAA: the “PBM E-score” value turned out to be 0.133.

Consider CATAAAGA, for which the “PBM E-score” value was 0.236.

Take AGCACCAC: the “PBM E-score” value is -0.28.

On to TCAGTACA, for which the “PBM E-score” value is -0.0324.

With GCCGTGCC, the “PBM E-score” value was determined as 0.308.

On to AATACCGT, for which the “PBM E-score” value came out at 0.213.

Take CTCTGACA: the “PBM E-score” value worked out at 0.0147.

CCGCGGAA: the “PBM E-score” value was 0.0664.

Consider CCCGGACC, for which the “PBM E-score” value is -0.291.

Take CACCGTGC: the “PBM E-score” value is 0.202.

For CTTGAAGC, the “PBM E-score” value was 0.00152.

Regarding GAACTCAC, the “PBM E-score” value was -0.026.

ATAGGCGC: the “PBM E-score” value turned out to be 0.0559.

With AGGAAAGC, the “PBM E-score” value was -0.215.

As to ACTAAAGT, the “PBM E-score” value was 0.038.

On to CGACAATC, for which the “PBM E-score” value is -0.101.

Consider CCCCGTCA, for which the “PBM E-score” value is -0.0515.

As to ACCCCTAG, the “PBM E-score” value was -0.21.

Regarding ACGTATAA, the “PBM E-score” value stood at 0.309.

With ATTCCAGC, the “PBM E-score” value was -0.121.

AGTCTTCC: the “PBM E-score” value was -0.232.

Regarding CGGATGCA, the “PBM E-score” value was -0.223.

As for GGTGAGAC, the “PBM E-score” value was -0.129.

As for GAATTTGC, the “PBM E-score” value came to 0.0122.

Take GCACTGAC: the “PBM E-score” value was found to be 0.0294.

For the sequence GAGGACCA, the “PBM E-score” value is -0.235.

In the case of GGCTATGA, the “PBM E-score” value was found to be 0.0687.

For TATTTGGA, the “PBM E-score” value came out at 0.19.

As for CATAGGAA, the “PBM E-score” value stood at 0.0448.

With CCCAGACA, the “PBM E-score” value was -0.219.

On to CCACGAGA, for which the “PBM E-score” value was -0.235.

Turning to AGTCCTCC, the “PBM E-score” value is -0.35.

Consider ACACCAGT, for which the “PBM E-score” value was -0.0654.

For the sequence AGAACCCA, the “PBM E-score” value is -0.156.

On to GCCCTGGA, for which the “PBM E-score” value is -0.278.

CCCGATGC: the “PBM E-score” value is -0.304.

Turning to ACACAAAC, the “PBM E-score” value was determined as 0.204.

Turning to AAATGGGG, the “PBM E-score” value was -0.119.

As for CCACGTTA, the “PBM E-score” value is 0.138.

As for ATAGGACA, the “PBM E-score” value was -0.159.

Consider ACTATCCA, for which the “PBM E-score” value is -0.164.

As for CTAGAGTA, the “PBM E-score” value turned out to be 0.0702.

On to ATCAATAG, for which the “PBM E-score” value was found to be 0.191.

As for CTCCCTCA, the “PBM E-score” value is -0.195.

For the sequence AACCCTTC, the “PBM E-score” value turned out to be 0.0402.

In the case of AATTCGTC, the “PBM E-score” value came to 0.316.

Consider ATGGACCA, for which the “PBM E-score” value is 0.0101.

Turning to AATCTAAT, the “PBM E-score” value stood at 0.21.

For CGGCGGAA, the “PBM E-score” value was -0.0135.

Consider GTGTGTTA, for which the “PBM E-score” value worked out at 0.197.

For the sequence ATCCGTGC, the “PBM E-score” value amounted to 0.256.
